# Assay results from article PMC4336329 (PLoS ONE, 2015).
# The whole screen tested about 310,000 compounds, of which about 2,200 (0.71%) showed an effect of 50% or more. The effect is printed as a negative number. Some of the results follow.
# Molecular target: human ether-à-go-go-related gene (hERG) potassium channel (human, UniProt Q12809)
# Test: primary screen, population patch clamp on CHO cells stably expressing hERG
# Sequence of human ether-à-go-go-related gene (hERG) potassium channel (Q12809 whole entry, looked up): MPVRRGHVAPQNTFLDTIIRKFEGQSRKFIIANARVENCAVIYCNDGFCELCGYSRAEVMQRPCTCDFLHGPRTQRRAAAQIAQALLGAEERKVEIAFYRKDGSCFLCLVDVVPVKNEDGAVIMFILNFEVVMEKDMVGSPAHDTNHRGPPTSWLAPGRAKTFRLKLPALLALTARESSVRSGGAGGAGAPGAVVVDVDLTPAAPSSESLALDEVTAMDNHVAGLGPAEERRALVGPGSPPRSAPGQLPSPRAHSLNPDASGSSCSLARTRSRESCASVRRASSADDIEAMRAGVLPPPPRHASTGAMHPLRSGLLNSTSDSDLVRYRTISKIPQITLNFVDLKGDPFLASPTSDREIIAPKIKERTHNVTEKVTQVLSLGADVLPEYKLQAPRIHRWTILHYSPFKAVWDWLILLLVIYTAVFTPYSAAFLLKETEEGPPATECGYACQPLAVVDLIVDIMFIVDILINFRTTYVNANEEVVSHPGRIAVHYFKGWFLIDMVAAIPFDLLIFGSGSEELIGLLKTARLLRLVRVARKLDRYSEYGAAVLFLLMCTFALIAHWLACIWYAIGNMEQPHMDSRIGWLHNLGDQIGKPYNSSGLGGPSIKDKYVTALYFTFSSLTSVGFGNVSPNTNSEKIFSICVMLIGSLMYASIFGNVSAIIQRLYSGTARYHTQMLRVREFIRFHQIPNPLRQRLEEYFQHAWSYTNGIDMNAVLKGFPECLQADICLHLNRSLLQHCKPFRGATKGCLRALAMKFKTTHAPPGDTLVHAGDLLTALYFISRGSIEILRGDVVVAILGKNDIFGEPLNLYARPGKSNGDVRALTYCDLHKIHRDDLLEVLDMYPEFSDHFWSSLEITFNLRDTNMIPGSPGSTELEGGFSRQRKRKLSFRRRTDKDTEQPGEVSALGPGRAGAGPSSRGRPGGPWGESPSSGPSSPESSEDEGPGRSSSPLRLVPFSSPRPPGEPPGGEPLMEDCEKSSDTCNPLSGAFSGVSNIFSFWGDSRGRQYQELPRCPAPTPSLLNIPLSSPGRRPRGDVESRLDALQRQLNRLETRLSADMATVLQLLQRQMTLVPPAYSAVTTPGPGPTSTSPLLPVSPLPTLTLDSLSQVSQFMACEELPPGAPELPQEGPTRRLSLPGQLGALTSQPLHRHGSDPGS
row,Structure (SMILES),"hERG current change (%, negative = inhibition) at 1uM [%]"
1,O=C(COC(=O)/C=C/c1ccco1)NCc1ccc(Cl)cc1,1.97
2,O=C(CSc1nnc(Nc2ccccc2F)s1)c1cc2ccccc2o1,5.99
3,Cc1c(NC(=O)CN2C(=O)NC3(CCCC3)C2=O)c(=O)n(-c2ccccc2)n1C,10.1
4,COc1ccc(OC)c(NC(=O)CN(C)CCOc2ccc(Br)cc2)c1,11.5
5,COc1ccc(Oc2nc(C)cc(C)c2S(=O)(=O)c2ccc(C)cc2)cc1,7.49
6,N#Cc1c(NC(=S)NC(=O)C2CCCC2)sc2c1CCCCC2,10.1
7,CSc1nnc(C)c(=O)n1COC(=O)COc1ccccc1F,15.2
8,COc1ccc(Cl)cc1N(C)C(=O)CCc1nc(-c2ccc(C)cc2)no1,5.49
9,Cc1c(Cl)cccc1NC(=S)NCCc1ccc(C(F)(F)F)cc1,11.6
10,Cc1ccc(CNC(=O)c2cc3c(=O)n(C)c4ccccc4c3n2C)o1,3.02
11,CN(Cc1cccc(Cl)c1Cl)C(=O)c1cccc(S(=O)(=O)N2CCN(Cc3ccccc3)CC2)c1,1.71
12,Cc1ccc(S(=O)(=O)N2CCCCC2)c2nsnc12,15.3
13,CN1C(C(=O)NCc2cccc(Br)c2)CC2Cn3c(nc4cc5ccccc5cc43)C21 (centres unmarked),-3.5
14,CC/C(=N\NC(=O)CSCc1ccccc1Cl)c1ccc2c(c1)OCCO2,9.29
15,COCCN(C(=O)COC(=O)Cc1coc2cc(C)ccc12)c1c(N)n(Cc2ccccc2)c(=O)[nH]c1=O,0.373
16,C/C(CCc1ccccc1)=N\NC(=O)c1ccccc1[N+](=O)[O-],17.7
17,CC(C)n1nnnc1SCC(=O)NCc1ccc2c(c1)OCO2,13
18,COc1ccc(S(=O)(=O)N2CCCC(C(=O)NCc3ccccn3)C2)cc1Cl (centres unmarked),-0.453
19,O=C(COc1cccc2cccnc12)Nc1cccc(S(=O)(=O)N2CCCC2)c1,0.359

row,Structure (SMILES),"hERG current change (%, negative = inhibition) at 1uM [%]"
1,COc1ccc(-c2nnc(SCc3nnc(-c4cccs4)o3)n2CC2CCCO2)cc1 (centres unmarked),2.84
2,Cc1oc2ccc(O)cc2c1C(=O)c1ccc(Br)cc1,13.1
3,CC12CCCCC1N(O)C(=O)C(=O)N2O (centres unmarked),13.8
4,COc1cc(C(=O)O/N=C2\CCCc3c2ccc(OC)c3[N+](=O)[O-])cc(OC)c1OC,4.16
5,c1ccc(CCc2nc(-c3ccc(-n4cccc4)cc3)no2)cc1,6.48
6,O=c1c2ccccc2c(-c2ccc(Cl)cc2)nn1-c1ccccc1,8.57
7,O=C(COC(=O)CCN1C(=O)C2CC=CCC2C1=O)NCCc1ccccc1 (centres unmarked),-12.7
8,N#Cc1ccccc1S(=O)(=O)N1CCN(C(=O)[C@H](Cc2ccccc2)NC(=O)c2ccco2)CC1,4.5
9,COc1ccccc1C(=O)CN1C(=O)NC2(CCc3ccccc32)C1=O (centres unmarked),7.17
10,COc1ccc(CN2C(=O)c3cccnc3C2=O)cc1S(=O)(=O)NC1CCCCC1,10
11,O=[N+]([O-])c1cccc(Nc2c([N+](=O)[O-])ccc3nonc23)c1,11.9
12,Cc1cc(NC(=O)C(C)SCC(=O)Nc2cc(Cl)ccc2N2CCN(C)CC2)no1 (centres unmarked),-7.48
13,CCOC(=O)Cc1csc(SCC(=O)NC2CCC(C)CC2)n1 (centres unmarked),7.87
14,Cc1c(CCO)c(=O)n(-c2ccccc2)n1S(=O)(=O)c1ccc(Cl)cc1,14.6
15,CCCCNC(=O)c1onc(CSc2cccc(Cl)c2)c1C(=O)O,3.01
16,Cc1ccc(Nc2nnc(SC(C)C(=O)Nc3c(C)n(C)n(-c4ccccc4)c3=O)s2)cc1 (centres unmarked),17.1
17,CC(C)COc1ccc(C(=O)NCc2ccco2)cc1,8.5
18,Nc1ccccc1C(=O)N1CCCC1,6.59
19,Cc1ccc(CNC(=O)CCc2ccccc2)cc1,5.25

row,Structure (SMILES),"hERG current change (%, negative = inhibition) at 1uM [%]"
1,CCCC(=O)NC(c1ccc(C)cc1)c1ccc2cccnc2c1O (centres unmarked),14
2,Cc1ccc(-n2ncc3c2CC(C)(C)CC3NC(=O)CCn2cncn2)cc1 (centres unmarked),-78.5
3,CC(=O)Nc1nc(=O)c2ccccc2s1,6.26
4,CCOC(=O)c1csc(NC(=O)CSc2nnc(C3CC3)n2C)n1,12.4
5,O=C(c1ccccc1Sc1ccc([N+](=O)[O-])cc1)N1CCCCC1,1.13
6,COc1ccc(Cl)cc1NC(=O)CC1S/C(=N/N=C2CCCCCC2)NC1=O (centres unmarked),12.3
7,CC(C)(C)c1ccc(-c2n[nH]c(=S)n2-c2ccccc2)cc1,14.6
8,COc1ccc2c(CC(=O)Nc3ccc(OC)c(S(=O)(=O)N4CCOCC4)c3)coc2c1,5.88
9,C/C(=C\CCC1(C)C2CC3C(C2)C31C)C(=O)O (centres unmarked),11.2
10,CCN(CC)c1ccc(NC(=O)CCCCC(=O)Nc2ccc(N(CC)CC)cc2)cc1,0.481
11,COc1ccc(S(=O)(=O)n2nc(OC(=O)c3c(-c4ccccc4Cl)noc3C)cc2N)cc1,12.7
12,Nc1[nH]nc2nc(-c3ccccc3)[nH]c(=O)c12,16.7
13,CCc1ccc(NC(=O)CSc2nnc(-c3cnccn3)n2Cc2ccco2)cc1,-1.43
14,COc1cccc(NC(=O)CN(C)CC(=O)c2c(C)[nH]c3ccccc23)c1,3.24
15,CC1CCCCN1C(=O)C1COc2ccccc2O1 (centres unmarked),13.4
16,O=C(COC(=O)c1c[nH]c(=O)[nH]c1=O)Nc1cccc([N+](=O)[O-])c1,10.3
17,O/N=C1\CC2(Cc3nonc31)OCCO2,12.7
18,O=C1CN(C(=O)c2ccc(Cl)nc2)c2ccccc2N1,6.36
